Reference: publication PMC4117486, “Investigation of Endoglin Wild-Type and Missense Mutant Protein Heterodimerisation Using Fluorescence Microscopy Based IF, BiFC and FRET Analyses” (PLoS ONE, 2014)

Target: T1, endoglin wild-type, EYFP- or ECFP-tagged (human, UniProt P17813 26-658)
T1 construct: endoglin (CD105), human, wild type; EYFP-tagged with the ECFP-tagged receptors and with soluble ECFP; ECFP-tagged with the EYFP-tagged mutants; both versions together for the homodimer; also called endoglin^wt-EYFP; endoglin^wt-ECFP; source: CHO cells, transiently co-transfected (50 ng of each construct per 100 000 cells), in living cells; not shown: EYFP (acceptor) or ECFP (donor), C-terminal, …
T1 sequence (looked up): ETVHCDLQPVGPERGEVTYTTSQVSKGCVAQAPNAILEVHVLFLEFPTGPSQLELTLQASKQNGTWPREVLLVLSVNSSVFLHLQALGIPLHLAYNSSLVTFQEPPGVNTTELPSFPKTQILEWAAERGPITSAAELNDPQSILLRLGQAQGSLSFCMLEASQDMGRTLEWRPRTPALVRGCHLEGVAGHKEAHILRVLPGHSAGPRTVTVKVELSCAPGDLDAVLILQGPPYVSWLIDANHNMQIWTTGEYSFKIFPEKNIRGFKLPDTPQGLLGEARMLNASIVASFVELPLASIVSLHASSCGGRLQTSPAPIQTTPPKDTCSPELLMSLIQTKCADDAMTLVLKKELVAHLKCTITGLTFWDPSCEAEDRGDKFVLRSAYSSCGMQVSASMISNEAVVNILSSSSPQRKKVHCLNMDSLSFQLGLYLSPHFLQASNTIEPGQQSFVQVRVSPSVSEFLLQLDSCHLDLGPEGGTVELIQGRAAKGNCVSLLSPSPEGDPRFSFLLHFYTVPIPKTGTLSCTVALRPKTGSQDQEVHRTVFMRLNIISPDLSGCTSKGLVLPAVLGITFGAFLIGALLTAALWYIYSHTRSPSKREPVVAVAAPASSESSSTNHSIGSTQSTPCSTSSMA
Assay: FRET or BRET; microscopic FRET in living CHO cells, ECFP donor and EYFP acceptor, 50 ng of each construct per 100 000 cells, 24 h after transfection, HEPES buffered ringer solution; FRET index (FI) = FRET efficiency x area with FRET; FI<51 no interaction, 51-99 weak or false positive, >=100 interaction; at least 30 cells per sample
Details: partners not purified

B1: ALK1, ECFP- or EYFP-tagged (receptor)
chain: [about 100 residues not spelt out]LALILGPVLALLALVALGVLGLWHVRRRQEKQRGLHSELGESSLILKASEQGDSMLGDLLDSDCTTGSGSGLPFLVQRTVARQVALVECVGKGRYGEVWRGLWHGESVAVKIFSSRDEQSWFRETEIYNTVLLRHDNILGFIASDMTSRNSSTQLWLITHYHEHGSLYDFLQRQTLEPHLALRLAVSAACGLAHLHVEIFGTQGKPAIAHRDFKSRNVLVKSNLQCCIADLGLAVMHSQGSDYLDIGNNPRVGTKRYMAPEVLDEQIRTDCFESYKWTDIWAFGLVLWEIARRTIVNGIVEDYRPPFYDVVPNDPSFEDMKKVVCVDQQTPTIPNRLAADPVLSGLAQMMRECWYPNPSARLTALRIKKTLQKISNSPEKPKVIQ
notes: ALK1, TGF-β type I receptor; The methods name only the EYFP version; the results use an ECFP-tagged version; also called ALK1-EYFP; source: CHO cells, transiently co-transfected, in living cells
% of cells clearly FRET-positive (FRET index >=100): 12% | % of cells in FRET index group 2 (FI 51-99, weak or false positive): 8% | mean FRET index of the positive cells: 166 FRET index
